Here are results for 42 sequences from PMC7819943, “Rice protein-binding microarrays: a tool to detect cis-acting elements near promoter regions in rice”.

This is one part of the list.

The target of this experiment is T1, OsWOX13 (Oryza sativa, UniProt Q5QMM3 1-267).
T1 sequence: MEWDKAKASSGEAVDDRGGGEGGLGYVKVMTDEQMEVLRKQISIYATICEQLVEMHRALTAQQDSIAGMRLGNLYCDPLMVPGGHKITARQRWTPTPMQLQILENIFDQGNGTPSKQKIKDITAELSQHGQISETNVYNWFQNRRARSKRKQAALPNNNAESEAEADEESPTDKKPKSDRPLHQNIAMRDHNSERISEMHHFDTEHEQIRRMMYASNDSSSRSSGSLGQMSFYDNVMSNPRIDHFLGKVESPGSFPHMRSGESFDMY
Description: protein-binding microarray (RPBM); PBS, 2% BSA, 51.3 ng/ul salmon testes DNA, 50 uM zinc acetate, 200 nM TF, 25 C, 1 h; high values mean tight binding. As to conditions: protein: recombinant; tags: N-terminal polyhistidine and DsRed monomer fusion (pET32a); label: CyDye5-dUTP incorporated in the synthesized complementary strand; 3' TTTTT single-stranded linker to array surface; dsDNA, one strand shown. An outline of the steps:
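Binding signal here means per-feature fluorescence intensity in arbitrary units. The values were read on an Axon 4000B scanner after a custom Agilent array, double-stranded by primer extension with Cy5-dUTP, was incubated with 200 nM protein at 25 °C for 1 h in PBS with 2% BSA, salmon testes DNA and 50 µM zinc acetate, then washed. The proteins were transcription factors with an N-terminal polyhistidine tag and DsRed, expressed in E. coli BL21-CodonPlus and purified on Ni–NTA.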
For “AGACTGAATGGCAACTGACAACTTTCTTGTATAAATCACACGGAGTCACCTAGTGCAG”, the binding signal was 7690 fluorescence intensity (a.u.).

As to “TTGTTGACAAGCATCATGATTAGTACAACCATGTGTCTATCGGAGTCACCTAGTGCAG”, the binding signal is 25800 fluorescence intensity (a.u.).

In the case of “ACTTGACTCATTAATAGCAAACAACAGTATTACATACGTACGGAGTCACCTAGTGCAG”, the binding signal was 4070 fluorescence intensity (a.u.).

As to “CCTAGATTGGTGTAGTAGGTCAGGCTTGGTAGCACATGCGCGGAGTCACCTAGTGCAG”, the binding signal was 16400 fluorescence intensity (a.u.).

Consider “GGGAATTTGTATTTAAATTTTGGTTTATAAAATTTATTCGCGGAGTCACCTAGTGCAG”, for which the binding signal is 9720 fluorescence intensity (a.u.).

Turning to “ATAATTGCTTGTAGTTGAAGCCAGTGAGGAAAATGTTGCTCGGAGTCACCTAGTGCAG”, the binding signal was 9690 fluorescence intensity (a.u.).

Take “GGGTAATCATTACCCATTCCCATATCCATACCCACATTATCGGAGTCACCTAGTGCAG”: the binding signal was 6150 fluorescence intensity (a.u.).

Turning to “TCATTAATTTTATTAATAGACCATTTCTAAAAGTATTTCACGGAGTCACCTAGTGCAG”, the binding signal is 11000 fluorescence intensity (a.u.).

Regarding “TGCCTAGATGTGTTGATTATTTTCTGTATGTAGAAAGGAACGGAGTCACCTAGTGCAG”, the binding signal is 6040 fluorescence intensity (a.u.).

As for “TTAAAATTGATTTTAGGGGATTTTCATCTGAGCTTATGTTCGGAGTCACCTAGTGCAG”, the binding signal was 55800 fluorescence intensity (a.u.).

In the case of “TTAGATAGATATATATGTATAGATTCATTAACAACAATATCGGAGTCACCTAGTGCAG”, the binding signal was 7550 fluorescence intensity (a.u.).

With “ATCTAGCTCAATTGGCTAATTACGTGCCCAACTCAACTGCCGGAGTCACCTAGTGCAG”, the binding signal is 7920 fluorescence intensity (a.u.).

Consider “CGGTCGTGGAATTGGCACTAATTAATAACCTGAGGTCATCCGGAGTCACCTAGTGCAG”, for which the binding signal was 5590 fluorescence intensity (a.u.).

As to “AGCGCGTACAAAATCGGAGCTGATTGCCTGACTATCTCTGCGGAGTCACCTAGTGCAG”, the binding signal is 4000 fluorescence intensity (a.u.).

For the sequence “CATTAATGTTCTTTGTCTAATTATTGACTAGAGGAATATGCGGAGTCACCTAGTGCAG”, the binding signal was 10100 fluorescence intensity (a.u.).

Regarding “TGAGAAAGCTAATTGAGATCGCTAGCTAACTAATGACCATCGGAGTCACCTAGTGCAG”, the binding signal was 8160 fluorescence intensity (a.u.).

“TACTAAACATAACTGGTTTTCCTCAACTTCACATACCCCACGGAGTCACCTAGTGCAG”: the binding signal is 4360 fluorescence intensity (a.u.).

In the case of “CTAGCTAGATAGATAGTAGATAGATCCTCACGAGTGGTTTCGGAGTCACCTAGTGCAG”, the binding signal was 4760 fluorescence intensity (a.u.).

On to “GTTTAGACAATGTGCTAATTGTCCTGTATAGCTGTAAGTACGGAGTCACCTAGTGCAG”, for which the binding signal is 11300 fluorescence intensity (a.u.).

Turning to “AACATATATTTTAATTGATGGGCTGGTAGCATTTTGTTTTCGGAGTCACCTAGTGCAG”, the binding signal was 21800 fluorescence intensity (a.u.).

As to “TATATATATATATATATATTGTTGAACGGTTTGTGCTCTGCGGAGTCACCTAGTGCAG”, the binding signal was 13000 fluorescence intensity (a.u.).

For “GACCACAATTAATTACCACTGCTAAGCTCCATCCTCCATGCGGAGTCACCTAGTGCAG”, the binding signal is 14500 fluorescence intensity (a.u.).

Regarding “AGCAAATTGTTTGGTGGAACTAAAGTAAACTCGATCTCTTCGGAGTCACCTAGTGCAG”, the binding signal is 5410 fluorescence intensity (a.u.).

Consider “ATCAATTTTAGGTGATTGAGAAAGACTTGCCGGATTTGATCGGAGTCACCTAGTGCAG”, for which the binding signal is 43100 fluorescence intensity (a.u.).

Regarding “GCTGACTGACTGACTGACTCCTGACCGCCTTTAACTTTTACGGAGTCACCTAGTGCAG”, the binding signal was 3880 fluorescence intensity (a.u.).

In the case of “TGGTTTTGATTGATCGATATTGCTTTTGTTTACCATTGCCCGGAGTCACCTAGTGCAG”, the binding signal is 49800 fluorescence intensity (a.u.).

With “GTAATTGGCAGGTGTACGTTCGTGTTCATATAGAATAGAGCGGAGTCACCTAGTGCAG”, the binding signal is 10200 fluorescence intensity (a.u.).

Turning to “ACGAGGATGACTGGCTGACTGGTACTTTGCATCGGATCATCGGAGTCACCTAGTGCAG”, the binding signal is 10200 fluorescence intensity (a.u.).

“GGCCTTACCTGCTACTAATTAACACCCAGACCGGCCCATGCGGAGTCACCTAGTGCAG”: the binding signal was 3370 fluorescence intensity (a.u.).

Turning to “ACATAATCATTGGTTGAGTCCTAGGCTAAGATAATTTCGACGGAGTCACCTAGTGCAG”, the binding signal was 7330 fluorescence intensity (a.u.).

Consider “CCTTTGTTATGATTATTACTAGTACGCGTCATGACAGAAGCGGAGTCACCTAGTGCAG”, for which the binding signal was 4270 fluorescence intensity (a.u.).

Turning to “TATTTAAATTAGAAATTCAATTAAAATTCTCCTCCCTTGTCGGAGTCACCTAGTGCAG”, the binding signal is 20700 fluorescence intensity (a.u.).

Turning to “GATGAGTGGTGATTGGTGAAGATATCTGGTGGTTTTGGGACGGAGTCACCTAGTGCAG”, the binding signal was 32400 fluorescence intensity (a.u.).

Consider “GGGTATAGATTGGTATAACAACTTGCGAATCGTTTAATCCCGGAGTCACCTAGTGCAG”, for which the binding signal was 24300 fluorescence intensity (a.u.).

As to “GTCAAATCATTATCATTATTCACTCAAACAGATGTCCTTACGGAGTCACCTAGTGCAG”, the binding signal was 9530 fluorescence intensity (a.u.).

As for “TCTAAATTTTGATCATCAGTATCCAACTTTGATTGTTATCCGGAGTCACCTAGTGCAG”, the binding signal is 21200 fluorescence intensity (a.u.).

Regarding “CGGCCCGTCAATCTGTTCTCTCAATCCAGAAAGAATAATACGGAGTCACCTAGTGCAG”, the binding signal is 3360 fluorescence intensity (a.u.).

Regarding “CTTAATAGTCTCTGACAAAGCAATAAAATCAAGGTGATGTCGGAGTCACCTAGTGCAG”, the binding signal is 6020 fluorescence intensity (a.u.).

For “ATAAATAGAATGCTGACTGGACTGCCACGCGTACGCCATGCGGAGTCACCTAGTGCAG”, the binding signal was 29000 fluorescence intensity (a.u.).

As to “TATAGTTGATTTACAGTTTTAGGATACGTCATATTCAACACGGAGTCACCTAGTGCAG”, the binding signal was 25900 fluorescence intensity (a.u.).

On to “ATCAAACTTTTATTACATTCAAATACAAATAGTTTGCTGACGGAGTCACCTAGTGCAG”, for which the binding signal was 3960 fluorescence intensity (a.u.).

In the case of “CTAATTAATACATGATTAGCCTATGTGAGGTTACAGTAAACGGAGTCACCTAGTGCAG”, the binding signal was 33900 fluorescence intensity (a.u.).
